Results reported in the antibiotic and cytotoxicity screens of Wong et al. (2023).
Some of the results follow.

Tests used:
HSkMC = human skeletal muscle cells; experiment: cytotoxicity call (relative viability < 0.9); conditions: 10 µM
HepG2 = experiment: cytotoxicity call (relative viability < 0.9); conditions: 10 µM
S. aureus RN4220 = experiment: growth inhibition call (relative growth <= 0.2); conditions: 50 µM

Row | Structure (SMILES) | cytotoxicity call (HSkMC) | cytotoxicity call (HepG2) | growth inhibition call (S. aureus RN4220)
1 | C[C@H](N)CCP(=O)(O)O | inactive | inactive | inactive
2 | CC(C)(C)S(=O)N1Cc2cc(C(=O)NCc3ccc4c(c3)OCO4)nc(-c3cccc(-c4cccc(F)c4)c3)c2[C@@H]1CCO (some centres not stated) | inactive | active | inactive
3 | C[C@@H]1CN([C@H](C)CO)C(=O)c2cc(NC(=O)Nc3cccc4ccccc34)ccc2O[C@H]1CN(C)C(=O)Nc1ccc(C(F)(F)F)cc1 | inactive | inactive | inactive
4 | COc1ccc(CN(C)C[C@H]2OCCCC[C@H](C)Oc3ccc(NS(=O)(=O)c4ccc(Cl)cc4)cc3C(=O)N([C@@H](C)CO)C[C@@H]2C)cc1 | inactive | inactive | inactive
5 | C[C@H]1CCCCO[C@H](CN(C)Cc2ccc(C(F)(F)F)cc2)[C@@H](C)CN([C@@H](C)CO)C(=O)c2cc(NC(=O)Nc3ccc(F)cc3)ccc2O1 | inactive | active | inactive
6 | CO[C@H]1O[C@H]2CO[C@H]([C@@H]1O)[C@@H]2O | inactive | inactive | inactive
7 | CC(C)NC(=O)N(C)C[C@@H]1Oc2cc(C#Cc3ccc(F)cc3)ccc2S(=O)(=O)N([C@@H](C)CO)C[C@@H]1C | inactive | inactive | inactive
8 | C[C@H](CO)N1C[C@H](C)[C@@H](CN(C)C(=O)Nc2cccc3ccccc23)OCCCC[C@H](C)Oc2ccc(NC(=O)Nc3ccc4c(c3)OCO4)cc2C1=O | inactive | inactive | inactive
9 | C[C@@H]1CN([C@H](C)CO)C(=O)Cc2cc(NC(=O)Nc3ccc4c(c3)OCO4)ccc2O[C@H]1CN(C)Cc1ccc(Oc2ccccc2)cc1 | inactive | inactive | inactive
10 | O=C(O)CCCCc1ccc(F)cc1 | inactive | inactive | inactive
11 | CCS(=O)(=O)Nc1ccc2c(c1)C(=O)N(C)C[C@@H](OC)[C@@H](C)CN(Cc1ccccn1)[C@@H](C)CO2 | inactive | inactive | inactive
12 | C[C@@H]1CN([C@H](C)CO)C(=O)CCCn2cc(nn2)CO[C@@H]1CN(C)C(=O)Nc1cccc2ccccc12 | inactive | inactive | inactive
13 | C[C@@H]1CCCCO[C@@H](CN(C)C(=O)CCC(F)(F)F)[C@@H](C)CN([C@@H](C)CO)C(=O)c2cc(NS(=O)(=O)c3ccc(Cl)cc3)ccc2O1 | inactive | inactive | inactive
14 | O=c1cccc2[nH][nH]cc1-2 | inactive | inactive | inactive
15 | C[C@H]1CN([C@@H](C)CO)C(=O)c2cc(NC(=O)Cn3cnnn3)ccc2O[C@@H]1CN(C)Cc1ccc(C(F)(F)F)cc1 | inactive | inactive | inactive
16 | CO[C@H]1CN(C)C(=O)c2cc(NC(=O)Nc3ccc(Cl)cc3)ccc2OC[C@@H](C)N(C(=O)Nc2c(C)noc2C)C[C@@H]1C | inactive | inactive | inactive
17 | CCS(=O)(=O)NCC[C@@H]1CC[C@@H](NC(=O)C2CCOCC2)[C@H](CO)O1 | inactive | inactive | inactive
18 | Cc1ccc(S(=O)(=O)N(C)C[C@H]2Oc3ccc(NC(=O)Nc4cccc5ccccc45)cc3CC(=O)N([C@@H](C)CO)C[C@@H]2C)cc1 | inactive | inactive | inactive
19 | Cc1ccc(S(=O)(=O)N2C[C@@H](O)COC[C@H]3O[C@@H](CC(=O)N[C@H]4CCN(Cc5ccccc5)C4)CC[C@@H]32)cc1 | inactive | inactive | inactive
20 | C[C@@H]1CCCCO[C@H](CN(C)C(=O)Nc2ccc(F)cc2)[C@@H](C)CN([C@H](C)CO)C(=O)c2cc(NC(=O)Nc3ccc4c(c3)OCO4)ccc2O1 | inactive | inactive | inactive

Row | Structure (SMILES) | cytotoxicity call (HSkMC) | cytotoxicity call (HepG2) | growth inhibition call (S. aureus RN4220)
21 | Cc1ccc(S[C@]2(C(=O)NCCCN(C)C)CC(=O)N(Cc3cc(C(F)(F)F)cc(C(F)(F)F)c3)[C@@H]2c2ccc(CO)cc2)cc1 | inactive | inactive | inactive
22 | C[C@@H]1CN([C@@H](C)CO)C(=O)c2cccc(NC(=O)c3ccc(-c4nccs4)cc3)c2O[C@H]1CN(C)Cc1ccc(Oc2ccccc2)cc1 | inactive | inactive | inactive
23 | C[C@H](CO)N1C[C@H](C)[C@H](CN(C)S(=O)(=O)c2ccc(F)cc2)Oc2ncc(C#CCN(C)C)cc2C1=O | inactive | inactive | inactive
24 | Cc1ccc(S(=O)(=O)Nc2ccc3c(c2)C(=O)N([C@@H](C)CO)C[C@H](C)[C@@H](CN(C)C(=O)c2ccccc2)OCCCC[C@@H](C)O3)cc1 | inactive | inactive | inactive
25 | COC(=O)c1c2oc(c1C(=O)OC)C(=O)N[C@@H](Cc1ccccc1)Cn1cc(nn1)[C@@H](Cc1ccccc1)NC(=O)N[C@H](CO)CC2 | inactive | inactive | inactive
26 | COc1ccc(NC(=O)N(C)C[C@H]2OCCCC[C@H](C)Oc3ccc(NC(=O)Nc4c(C)noc4C)cc3C(=O)N([C@@H](C)CO)C[C@@H]2C)cc1 | inactive | inactive | inactive
27 | COc1ccc(S(=O)(=O)N(C)C[C@H]2OCCCC[C@H](C)Oc3ccc(NC(=O)Nc4cccc5ccccc45)cc3C(=O)N([C@@H](C)CO)C[C@@H]2C)cc1 | inactive | inactive | inactive
28 | C[C@H]1CN([C@@H](C)CO)C(=O)c2cccc(NC(=O)Nc3cccc4ccccc34)c2O[C@H]1CN(C)Cc1ccc(C(=O)Nc2ccccc2N)cc1 | inactive | active | inactive
29 | C[C@@H]1CN([C@@H](C)CO)C(=O)c2cccc(NC(=O)Nc3ccc(F)cc3)c2O[C@H]1CN(C)Cc1ccc(Oc2ccccc2)cc1 | inactive | inactive | inactive
30 | O=C(C[C@H]1CC[C@@H]2[C@H](COC[C@H](O)CN2S(=O)(=O)c2ccc(F)cc2)O1)NCc1ccc(Cl)c(Cl)c1 | inactive | inactive | inactive
31 | C[C@@H]1CN([C@@H](C)CO)C(=O)CCCn2nncc2CO[C@H]1CN(C)S(=O)(=O)c1ccc2c(c1)OCCCO2 | inactive | inactive | inactive
32 | c1cn2c3c(n1)CCCc3c1cc(C3CCCCC3)ccc12 | inactive | inactive | inactive
33 | C[C@H](CO)N1C[C@H](C)[C@@H](CN(C)C(=O)c2cnccn2)Oc2ncc(-c3cccc(C#N)c3)cc2C1=O | inactive | inactive | inactive
34 | O=C(C[C@@H]1CC[C@H]2[C@@H](COC[C@@H](O)CN2C(=O)Nc2ccc(Cl)c(Cl)c2)O1)NCc1ccncc1 | inactive | inactive | active
35 | COCC(=O)Nc1ccc2c(c1)OC[C@H](C)N(C(=O)Cc1cccnc1)C[C@H](C)[C@H](OC)CN(C)C2=O | inactive | inactive | inactive
36 | Cc1cccc(S(=O)(=O)N2C[C@@H](O)COC[C@@H]3O[C@@H](CC(=O)NCc4ccc5c(c4)OCO5)CC[C@H]32)c1 | inactive | inactive | inactive
37 | COCCOC(=O)N1C(=O)[C@@]2(c3cc(C#CCCO)ccc31)[C@H](c1ccc(O)cc1)N1[C@H](c3ccccc3)[C@H](c3ccccc3)OC(=O)[C@H]1[C@@H]2C(=O)NC[C@H](O)c1ccccc1 | inactive | inactive | inactive
38 | C[C@@H]1CCCCO[C@@H](CN(C)C(=O)Nc2ccc(C(F)(F)F)cc2)[C@H](C)CN([C@H](C)CO)C(=O)c2cc(NS(=O)(=O)c3ccc(F)cc3)ccc2O1 | inactive | inactive | inactive
39 | CC(C)NC(=O)Nc1cccc2c1O[C@H](CN(C)S(=O)(=O)c1ccccc1)[C@H](C)CN([C@@H](C)CO)C2=O | inactive | inactive | inactive
